This is an account of results in ChEMBL document CHEMBL4888484, “Replenishing the malaria drug discovery pipeline: Screening and hit evaluation of the MMV Hit Generation Library 1 (HGL1) against asexual blood stage Plasmodium falciparum ,using a nano luciferase reporter read-out” (2022).

Among all 150,000 compounds or so, about 540 (0.36%) showed an effect of 50% or more. This is one part of the list.

For this experiment, the system named is Plasmodium falciparum. In words: Primary screen in NF54 nanoGlo assay, in single point, at 2uM, 72h; a lower Z score goes with more inhibition. It counts as functional, Erythrocyte. The conditions noted are these: timepoint 72 hour.
`CO[C@H]1C[C@@H](O)C12CCN(C(=O)c1ccc(N)nc1)CC2`: the “% Inhibition” value is on record as -6% and the Z score is reported as 0.77.

In the case of `Cc1ccc(S(=O)(=O)Nc2[nH]nnc2C(=O)Nc2ccc(F)cc2)cc1`, the “% Inhibition” value came out at 4% and the Z score is -0.54.

Turning to `CC(C)N1C(=O)N[C@]2(CCN(CC3CCCC3)C2)C1=O`, the “% Inhibition” value is -6% and the Z score is given as 0.61.

`COc1ccc(F)c(CN2CCC[C@@]3(CCN(c4cc(C#N)ccn4)C3)C2)c1`: the “% Inhibition” value is -12% and the Z score worked out at 2.04.

With `C=C1CC(c2noc(-c3ccc(C(F)(F)F)c(=O)[nH]3)n2)C1`, the “% Inhibition” value is -16% and the Z score is reported as 2.03.

For `O=C(c1cnn(-c2ccc(F)cc2)n1)N1CCc2cncnc2C1`, the “% Inhibition” value was -7% and the Z score is reported as 1.36.

As to `COCc1cc(C[C@@H]2C[C@H](NS(=O)(=O)c3ccccc3)C2(C)C)no1`, the “% Inhibition” value is on record as 22% and the Z score was -2.51.

`c1ccc2c(CNC[C@H]3CCCO3)cccc2c1`: the “% Inhibition” value is reported as 2% and the Z score is given as -0.33.

`Cc1cc(C)nc(NC(=N)N2CCOCC2)n1`: the “% Inhibition” value was -1% and the Z score was 0.14.

As for `Cc1nc(-c2ccccn2)n(CC(=O)Nc2cc(C3CC3)nn2-c2ccccc2)n1`, the “% Inhibition” value is given as -1% and the Z score is 0.26.

Regarding `COc1ccc(C2C(COC(=O)c3cnn(C)c3C)CCN2C)cc1` (stereo unspecified), the “% Inhibition” value was -4% and the Z score came out at 0.58.

Take `O=C1CC(C2CCCCN2Cc2ccc(Cl)cc2F)CN1` (stereo unspecified): the “% Inhibition” value was -11% and the Z score was 1.16.

`Cc1cc(CN2CCC[C@H](C)C2)c(C)c(CN2CCNC(=O)C23CCCC3)c1`: the “% Inhibition” value is reported as -13% and the Z score was found to be 1.72.

Regarding `Cc1csc2ncnc(NC3CC(C)n4ccnc43)c12` (stereo unspecified), the “% Inhibition” value was determined as 0% and the Z score is 0.04.

With `Cc1nnnn1Cc1ccc(C(=O)N2CCC(C(=O)N3CCCC3)CC2)cc1`, the “% Inhibition” value is 7% and the Z score is on record as -1.45.

For `C(=C\C1CCCCC1)/c1n[nH]c2ncccc12`, the “% Inhibition” value was -14% and the Z score is 1.8.

Consider `CCNC(=O)C1=CCN(C(=O)c2ccc(C)cc2C)CC1`, for which the “% Inhibition” value was found to be 3% and the Z score is -0.5.

As for `O=C(Cn1cnc2cc3c(cc21)OCCO3)NCCc1ccccc1`, the “% Inhibition” value was -4% and the Z score was 0.4.

`O=C(NCCc1n[nH]c(-c2ccc(F)c(F)c2)n1)c1ccc(Cl)cc1`: the “% Inhibition” value is on record as -8% and the Z score was determined as 1.44.

Turning to `CC(NC(=O)CN1C(=O)CC(C)(C(C)C)C1=O)c1ccc(F)cc1` (stereo unspecified), the “% Inhibition” value is -7% and the Z score was 0.76.

As to `CCC1(CC)CCC(NC(=O)NCCc2cncc(C)n2)CC1`, the “% Inhibition” value was -13% and the Z score is recorded as 1.12.

For `O=C1NCCN(Cc2cccc(F)c2F)[C@H]1CC(=O)N1CCCC1`, the “% Inhibition” value was -2% and the Z score turned out to be 0.36.

With `COCCN(Cc1ccc(C)o1)C(=O)c1ccc(Cl)cn1`, the “% Inhibition” value is reported as -8% and the Z score came to 1.07.

In the case of `O=C(CC1CCCC1)N[C@@H](CN1C(=O)COC1=O)c1ccccc1`, the “% Inhibition” value was -10% and the Z score was 1.88.

For `CCn1nc(C)c2c1c(=O)n(Cc1ccccc1)c(=O)n2CC(=O)Nc1cccc(C(C)=O)c1`, the “% Inhibition” value was -15% and the Z score turned out to be 1.49.

Turning to `Cc1ccc(-n2c(-c3ccccc3)nnc2-c2ccco2)cc1`, the “% Inhibition” value is listed as -35% and the Z score worked out at 4.06.

For `Cc1c(NC(=O)CNCc2ccco2)c(=O)n(-c2ccccc2)n1C`, the “% Inhibition” value is on record as -3% and the Z score was 0.43.

On to `CC(C)c1cnc(-c2ccc(NC(=O)CCc3cscn3)cc2)o1`, for which the “% Inhibition” value is recorded as -1% and the Z score was 0.08.

For the compound `O=C(CN1CCCS1(=O)=O)NCC1(C2CC2)CC1`, the “% Inhibition” value was -6% and the Z score turned out to be 0.88.

For `Cc1ccc(-n2ncnc2[C@@H]2CCCN2C(N)=O)cc1C`, the “% Inhibition” value was found to be 10% and the Z score was -1.98.

In the case of `CC(C)NC(=O)Cn1ccnc1CCN1C(=O)c2ccccc2C1=O`, the “% Inhibition” value was determined as 33% and the Z score was -4.76.

For `CCOC(=O)c1nn(-c2cccnc2)c2ccccc2c1=O`, the “% Inhibition” value turned out to be 29% and the Z score is -3.97.

Regarding `COc1ccc(C(=O)Cn2cn[n+](CC(=O)c3ccc(OC)cc3)c2)cc1`, the “% Inhibition” value is listed as -10% and the Z score turned out to be 1.19.

As to `CCOC(=O)c1cc(NC(=O)[C@@H](NC(=O)C(C)(C)C)C(C)C)[nH]n1`, the “% Inhibition” value is -7% and the Z score is 1.1.

For the compound `c1ccc(N2CCN(Cc3ccncc3CN3CCN(c4ccccn4)CC3)CC2)nc1`, the “% Inhibition” value is reported as -3% and the Z score is 0.59.

For `O=C(C1CCC1)N1CCN(Cc2ccccc2)c2ncccc21`, the “% Inhibition” value was -9% and the Z score was determined as 1.1.

On to `Cc1ccc(C(=O)N2CC[C@H](n3ccnn3)C2)s1`, for which the “% Inhibition” value is on record as -3% and the Z score worked out at 0.39.

In the case of `Cc1nccc(-c2ccccc2)c1C(=O)NCc1n[nH]c(=O)[nH]1`, the “% Inhibition” value is recorded as -10% and the Z score turned out to be 1.07.

Take `Cc1ccc(CN(C)C(=O)NC2CCOC3(CCS(=O)(=O)C3)C2)s1` (stereo unspecified): the “% Inhibition” value is -10% and the Z score is 1.32.

For `CC(C)(C)NCCOCCOc1ccc(F)cc1`, the “% Inhibition” value is -2% and the Z score was 0.38.

With `COCCNC1=Nc2ncccc2NC12CCN(C(=O)Cc1c(F)cccc1Cl)CC2`, the “% Inhibition” value was -4% and the Z score is given as 0.62.

For `Cc1nonc1OCCn1cc([C@H]2CCOC2)nn1`, the “% Inhibition” value is recorded as 2% and the Z score is reported as -0.34.

On to `COc1ccc(C(=O)O)nc1-c1ccnc2[nH]ccc12`, for which the “% Inhibition” value turned out to be 10% and the Z score is listed as -1.37.
